Experimental data taken from the supplement of paper PMC8728848.
The list shows a part of the results.

Key:
Experiment in all cases: glycan array binding signal (z-score within array); higher = stronger binding
Conditions in all cases: glycan notation: IUPAC condensed, linker removed
Gal(a1-6)Glc = target: Gal(a1-6)Glc
How it was run: (§1)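 Columns mapping to the same glycan were averaged after glycan names were converted to IUPAC-condensed notation. The data come from 3228 arrays in the Consortium for Functional Glycomics database, limited to those with an available protein sequence. Binding is reported as a within-array Z-score averaged across arrays of one protein sequence and across linkers.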

Gal(b1-2)Gal = target: Gal(b1-2)Gal
How it was run: as §1

Gal(b1-3)Gal = target: Gal(b1-3)Gal
How it was run: as §1

Gal(b1-3)Gal(b1-4)GlcNAc = target: Gal(b1-3)Gal(b1-4)GlcNAc
How it was run: as §1

Gal(b1-3)GalNAc = target: Gal(b1-3)GalNAc
How it was run: as §1

[1] = target: Gal(b1-3)GalNAc(a1-3)[Fuc(a1-2)]Gal(b1-4)Glc
How it was run: as §1

[2] = target: Gal(b1-3)GalNAc(a1-3)[Fuc(a1-2)]Gal(b1-4)GlcNAc
How it was run: as §1

Gal(b1-3)GalNAc(b1-3)Gal = target: Gal(b1-3)GalNAc(b1-3)Gal
How it was run: as §1

[3] = target: Gal(b1-3)GalNAc(b1-3)Gal(a1-4)Gal(b1-4)Glc
How it was run: as §1

[4] = target: Gal(b1-3)GalNAc(b1-4)Gal(b1-4)Glc
How it was run: as §1

[5] = target: Gal(b1-3)GalNAc(b1-4)[Neu5Ac(a2-3)]Gal(b1-4)Glc
How it was run: as §1

Gal(b1-3)GlcNAc = target: Gal(b1-3)GlcNAc
How it was run: as §1

[6] = target: Gal(b1-3)GlcNAc(a1-3)Gal(b1-4)GlcNAc
How it was run: as §1

[7] = target: Gal(b1-3)GlcNAc(a1-6)Gal(b1-4)GlcNAc
How it was run: as §1

Gal(b1-3)GlcNAc(b1-2)Man = target: Gal(b1-3)GlcNAc(b1-2)Man
How it was run: as §1

[8] = target: Gal(b1-3)GlcNAc(b1-2)Man(a1-3)[Gal(b1-3)GlcNAc(b1-2)Man(a1-6)]Man(b1-4)GlcNAc(b1-4)GlcNAc
How it was run: as §1

[9] = target: Gal(b1-3)GlcNAc(b1-2)Man(a1-3)[Gal(b1-3)GlcNAc(b1-2)Man(a1-6)]Man(b1-4)GlcNAc(b1-4)[Fuc(a1-6)]GlcNAc
How it was run: as §1

[10] = target: Gal(b1-3)GlcNAc(b1-2)Man(a1-3)[GlcNAc(b1-4)][Gal(b1-3)GlcNAc(b1-2)Man(a1-6)]Man(b1-4)GlcNAc(b1-4)GlcNAc
How it was run: as §1

[11] = target: Gal(b1-3)GlcNAc(b1-2)[Gal(b1-3)GlcNAc(b1-6)]Man(a1-6)[Gal(b1-3)GlcNAc(b1-2)Man(a1-3)]Man(b1-4)GlcNAc(b1-4)GlcNAc
How it was run: as §1

[12] = target: Gal(b1-3)GlcNAc(b1-3)Gal(b1-3)GlcNAc
How it was run: as §1

[13] = target: Gal(b1-3)GlcNAc(b1-3)Gal(b1-4)Glc
How it was run: as §1

[14] = target: Gal(b1-3)GlcNAc(b1-3)Gal(b1-4)GlcNAc
How it was run: as §1

[15] = target: Gal(b1-3)GlcNAc(b1-3)Gal(b1-4)GlcNAc(b1-2)Man(a1-3)[Gal(b1-3)GlcNAc(b1-3)Gal(b1-4)GlcNAc(b1-2)Man(a1-6)]Man(b1-4)GlcNAc(b1-4)GlcNAc
How it was run: as §1

[16] = target: Gal(b1-3)GlcNAc(b1-3)Gal(b1-4)GlcNAc(b1-2)[Gal(b1-3)GlcNAc(b1-3)Gal(b1-4)GlcNAc(b1-6)]Man(a1-6)[Gal(b1-3)GlcNAc(b1-3)Gal(b1-4)GlcNAc(b1-2)Man(a1-3)]Man(b1-4)GlcNAc(b1-4)[Fuc(a1-6)]GlcNAc
How it was run: as §1

[17] = target: Gal(b1-3)GlcNAc(b1-3)Gal(b1-4)GlcNAc(b1-3)Gal(b1-4)GlcNAc(b1-2)[Gal(b1-3)GlcNAc(b1-3)Gal(b1-4)GlcNAc(b1-3)Gal(b1-4)GlcNAc(b1-6)]Man(a1-6)[Gal(b1-3)GlcNAc(b1-3)Gal(b1-4)GlcNAc(b1-3)Gal(b1-4)GlcNAc(b1-2)Man(a1-3)]Man(b1-4)GlcNAc(b1-4)[Fuc(a1-6)]GlcNAc
How it was run: as §1

[18] = target: Gal(b1-3)GlcNAc(b1-3)Gal(b1-4)GlcNAc(b1-6)[Gal(b1-3)GlcNAc(b1-3)]Gal(b1-4)Glc
How it was run: as §1

[19] = target: Gal(b1-3)GlcNAc(b1-3)Gal(b1-4)[Fuc(a1-3)]GlcNAc
How it was run: as §1

[20] = target: Gal(b1-3)GlcNAc(b1-3)Gal(b1-4)[Fuc(a1-3)]GlcNAc(b1-6)[Gal(b1-3)GlcNAc(b1-3)]Gal(b1-4)Glc
How it was run: as §1

[21] = target: Gal(b1-3)GlcNAc(b1-3)GalNAc
How it was run: as §1

[22] = target: Gal(b1-3)GlcNAc(b1-6)Gal(b1-4)GlcNAc
How it was run: as §1

[23] = target: Gal(b1-3)GlcNAc(b1-6)GalNAc
How it was run: as §1

[24] = target: Gal(b1-3)GlcNAc(b1-6)[Gal(b1-3)]GalNAc
How it was run: as §1

Gal(b1-3)GlcNAc6S = target: Gal(b1-3)GlcNAc6S
How it was run: as §1

[25] = target: Gal(b1-3)[Fuc(a1-4)]GlcNAc
How it was run: as §1

[26] = target: Gal(b1-3)[Fuc(a1-4)]GlcNAc(b1-2)Man
How it was run: as §1

[27] = target: Gal(b1-3)[Fuc(a1-4)]GlcNAc(b1-2)Man(a1-3)[Gal(b1-3)[Fuc(a1-4)]GlcNAc(b1-2)Man(a1-6)]Man(b1-4)GlcNAc(b1-4)[Fuc(a1-6)]GlcNAc
How it was run: as §1

[28] = target: Gal(b1-3)[Fuc(a1-4)]GlcNAc(b1-3)Gal(b1-3)[Fuc(a1-4)]GlcNAc
How it was run: as §1

[29] = target: Gal(b1-3)[Fuc(a1-4)]GlcNAc(b1-3)Gal(b1-4)[Fuc(a1-3)]GlcNAc
How it was run: as §1

[30] = target: Gal(b1-3)[Fuc(a1-4)]GlcNAc(b1-6)GalNAc
How it was run: as §1

[31] = target: Gal(b1-3)[GlcNAc(b1-6)]GalNAc
How it was run: as §1

[32] = target: Gal(b1-3)[Neu5Ac(a2-6)]GalNAc
How it was run: as §1

[33] = target: Gal(b1-3)[Neu5Ac(a2-6)]GlcNAc(b1-4)Gal(b1-4)Glc
How it was run: as §1

[34] = target: Gal(b1-3)[Neu5Ac(b2-6)]GalNAc
How it was run: as §1

Gal(b1-4)Gal = target: Gal(b1-4)Gal
How it was run: as §1

[35] = target: Gal(b1-4)GalNAc(a1-3)[Fuc(a1-2)]Gal(b1-4)GlcNAc
How it was run: as §1

B1: DrGal3 (Danio rerio) (protein)
chain: MDLSDALDAPPQQNNQQAGGPVWPGQPANPVWPGQPANPTWPGQPNQPAWPGQPNQQWPGQPGQPTAPGWPGPAPQTGPYGAPGQAPQVLTVPLDFPLQNGAYNKMLITINGEVKPNAKQFTVNLRRGNDIAFHINPRFSEGGKPVIVRNSMIGNNWGREERELPSFPFVPGKPFEMKILITDTEYKVAVNKSHLLEFKHRVFELNQITGLSIYNDVTLSTVNVETLQ
Which “glycan array binding signal (z-score)” value (Gal(a1-6)Glc) does the source give for B1 here?
Its value is -0.264.

And the “glycan array binding signal (z-score)” value (Gal(b1-2)Gal)?
The value was -0.217.

And the “glycan array binding signal (z-score)” value (Gal(b1-3)Gal)?
Its value is -0.255.

And the “glycan array binding signal (z-score)” value (Gal(b1-3)Gal(b1-4)GlcNAc)?
The value was -0.238.

What about the “glycan array binding signal (z-score)” value (Gal(b1-3)GalNAc) of the same binder?
The value was -0.219.

And the “glycan array binding signal (z-score)” value [1]?
Its value is -0.229.

And the “glycan array binding signal (z-score)” value [2]?
Its value is 0.049.

And the “glycan array binding signal (z-score)” value (Gal(b1-3)GalNAc(b1-3)Gal)?
The value was -0.183.

What about the “glycan array binding signal (z-score)” value [3] of the same binder?
The value was -0.255.

And the “glycan array binding signal (z-score)” value [4]?
The value was -0.151.

What about the “glycan array binding signal (z-score)” value [5] of the same binder?
Its value is -0.241.

What about the “glycan array binding signal (z-score)” value (Gal(b1-3)GlcNAc) of the same binder?
The value was -0.234.

What about the “glycan array binding signal (z-score)” value [6] of the same binder?
Its value is -0.214.

And the “glycan array binding signal (z-score)” value [7]?
Its value is -0.234.

What about the “glycan array binding signal (z-score)” value (Gal(b1-3)GlcNAc(b1-2)Man) of the same binder?
Its value is -0.19.

And the “glycan array binding signal (z-score)” value [8]?
The value was -0.227.

And the “glycan array binding signal (z-score)” value [9]?
The value was -0.264.

And the “glycan array binding signal (z-score)” value [10]?
The value was -0.206.

And the “glycan array binding signal (z-score)” value [11]?
The value was -0.233.

And the “glycan array binding signal (z-score)” value [12]?
The value was -0.209.

And the “glycan array binding signal (z-score)” value [13]?
The value was 0.006.

What about the “glycan array binding signal (z-score)” value [14] of the same binder?
Its value is -0.23.

What about the “glycan array binding signal (z-score)” value [15] of the same binder?
Its value is -0.138.

And the “glycan array binding signal (z-score)” value [16]?
Its value is -0.136.

And the “glycan array binding signal (z-score)” value [17]?
The value was 0.998.

And the “glycan array binding signal (z-score)” value [18]?
The value was -0.233.

What about the “glycan array binding signal (z-score)” value [19] of the same binder?
Its value is -0.222.

And the “glycan array binding signal (z-score)” value [20]?
The value was -0.243.

What about the “glycan array binding signal (z-score)” value [21] of the same binder?
The value was -0.22.

And the “glycan array binding signal (z-score)” value [22]?
Its value is -0.282.

And the “glycan array binding signal (z-score)” value [23]?
The value was -0.277.

And the “glycan array binding signal (z-score)” value [24]?
Its value is -0.179.

And the “glycan array binding signal (z-score)” value (Gal(b1-3)GlcNAc6S)?
The value was -0.29.

What about the “glycan array binding signal (z-score)” value [25] of the same binder?
The value was -0.222.

And the “glycan array binding signal (z-score)” value [26]?
The value was -0.213.

What about the “glycan array binding signal (z-score)” value [27] of the same binder?
Its value is -0.223.

What about the “glycan array binding signal (z-score)” value [28] of the same binder?
The value was -0.24.

And the “glycan array binding signal (z-score)” value [29]?
The value was -0.271.

And the “glycan array binding signal (z-score)” value [30]?
Its value is -0.208.

What about the “glycan array binding signal (z-score)” value [31] of the same binder?
The value was -0.231.

What about the “glycan array binding signal (z-score)” value [32] of the same binder?
Its value is -0.245.

And the “glycan array binding signal (z-score)” value [33]?
The value was -0.236.

What about the “glycan array binding signal (z-score)” value [34] of the same binder?
Its value is -0.248.

And the “glycan array binding signal (z-score)” value (Gal(b1-4)Gal)?
The value was -0.192.

And the “glycan array binding signal (z-score)” value [35]?
The value was -0.176.
